This experiment deals with actinic keratoses. As to the kind of experiment: Phototherapy of actinic keratoses lesions with red light emitting OLED. Particulars: 20% topical solution; illuminated 14-18 hours after application, about 20 mW/cm^2 for about 8.3 minutes. Here is the method: 5-Aminolevulinic acid HCl (20% topical solution, available as LEVULAN® KERASTICK® from DUSA® Pharmaceuticals) is topically applied to individual lesions on a person suffering from actinic keratoses. About 14-18 hours after application, the treated lesions are illuminated with a red light emitting OLED device constructed as set forth in Example 13 (Compound 8:Ir(piq)2acac emissive layer and no wavelength convertor layer) at an intensity of about 20 mW/cm^2 for about 8.3 minutes.
The treatment is repeated as needed.
Methyl aminolevulinate (16.8% topical cream, available as METVIXIA® Cream from GALERMA LABORATORIES, Fort Worth, Tex., USA) is topically applied to individual lesions on a person suffering from actinic keratoses. The excess cream is removed with saline, and the lesions are illuminated with the red light emitting OLED constructed as set forth in Example 13.
Nitrile gloves are worn at all times during the handling of methyl aminolevulinate. After the treatment, it is anticipated that the number or severity of the lesions is reduced. The treatment is repeated as needed.

Each structure is given as a SMILES string.

Regarding `Cl.NCC(=O)CCC(=O)O` [5-Aminolevulinic acid HCl], the “number or severity of the lesions” value was “anticipated to be reduced”.

Source of the values: patent US20120179089A1, “SUBSTITUTED BIPYRIDINES FOR USE IN ORGANIC LIGHT-EMITTING DEVICES” (Nitto Denko Corporation, priority 2010, published 2012).
